Reference: the supplement of paper PMC10126150
Values marked as one replicate rest on one cluster of the flow cell; about a third of the high ones do not repeat.

Test system: ATP
Assay: switch fluorescence ratio, 500 uM ATP over buffer (Cy3 cluster intensity, sum of 5 cycles each) (fold (ratio)); higher = stronger signal-on switching upon ATP binding; sequences stand for … in TCGTCGGCAGCGTCAGATGTGTATAAGAGACAGTTTTTTTTTTTTTTTTTTTTTTTTT…TC
Conditions: aptamer strand: ATP DNA aptamer (quencher-CACCTGGGGGAGTATTGCGGAGGAAGG + anchor), 100 nM annealed; ATP concentration: 500 uM; one replicate
Method in brief: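 Five buffer/ATP imaging cycles were run on Cy3-labelled switching-strand clusters on a modified Illumina MiSeq flow-cell, with NaOH stripping and re-annealing between cycles. In each cycle, clusters annealed to 100 nM quencher-labelled ATP aptamer were imaged in selection buffer, then after 15 min with 500 uM ATP at 22 °C. Per cluster, the fluorescence ratio is summed target-cycle over summed buffer-cycle Cy3 intensity, averaged per switch-domain sequence. Only clusters within 100-1000 RFU were kept.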
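Also: ATP exposure 15 min at 22 °C before imaging.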

Row | Sequence | switch fluorescence ratio
1 | GCAGTCCATT | 0.984
2 | GCAGTCCGGA | 0.991
3 | GCAGTGCAGA | 1.03
4 | GCAGTGGGAC | 1.29
5 | GCAGTGGTCG | 1.01
6 | GCAGTGTGAG | 0.94
7 | GCAGTGTGGG | 1.01
8 | GCAGTTACCG | 1
9 | GCATAAATTT | 0.994
10 | GCATAAGGCT | 1.03
11 | GCATACCCTC | 1.13
12 | GCATACTAGG | 1.05
13 | GCATAGACTC | 1.9
14 | GCATAGCTTA | 1
15 | GCATATCCT | 1.05
16 | GCATATTTAA | 1.02
17 | GCATCAGCGT | 1.01
18 | GCATCATCTC | 1.03
19 | GCATCGCTCG | 0.998
20 | GCATCGTAGG | 0.989
21 | GCATCTACAG | 1.2
22 | GCATCTACTA | 1.03
23 | GCATCTCAAC | 1.06
24 | GCATCTGCTC | 1.03
25 | GCATGAATTT | 0.994

Row | Sequence | switch fluorescence ratio
26 | GCATGACTAC | 1.42
27 | GCATGATAT | 0.995
28 | GCATGCCAGC | 1.01
29 | GCATGCTACC | 1.18
30 | GCATGGAATC | 1.05
31 | GCATGGGCGG | 0.993
32 | GCATGGGGAA | 1.02
33 | GCATGTCCGG | 0.999
34 | GCATGTGTCA | 1.03
35 | GCATGTTGTG | 0.991
36 | GCATTAAAA | 0.99
37 | GCATTAGTTG | 0.937
38 | GCATTATA | 0.984
39 | GCATTCAGTC | 1.02
40 | GCATTCGGGG | 1.05
41 | GCATTGTCAC | 1.03
42 | GCATTTAAT | 1.01
43 | GCATTTGAT | 0.971
44 | GCCAAAGGTT | 1.02
45 | GCCAACGTCA | 1.04
46 | GCCAATAACA | 0.962
47 | GCCACACTTC | 1.02
48 | GCCACATTTA | 0.982
49 | GCCACCGACC | 1.5
50 | GCCACCGGG | 1.36

Row | Sequence | switch fluorescence ratio
51 | GCCACTCAGA | 1.01
52 | GCCAGCAACG | 1.02
53 | GCCAGCGTCA | 1.02
54 | GCCAGGACGG | 0.9
55 | GCCAGGAGAC | 1.03
56 | GCCAGGATTT | 1
57 | GCCAGGGGG | 1.08
58 | GCCAGGGTTG | 0.995
59 | GCCATATTCT | 1
60 | GCCATCAGGG | 1.1
61 | GCCATGCCAG | 1.05
62 | GCCATGGCTA | 1.02
63 | GCCATTCAAC | 1.03
64 | GCCATTGGCG | 1.01
65 | GCCCATCGGA | 0.987
66 | GCCCATTACT | 1.18
67 | GCCCCAAATG | 1.03
68 | GCCCCAATTG | 1.07
69 | GCCCCACTTA | 1.02
70 | GCCCCCATTA | 0.997
71 | GCCCCCCAGT | 3.64
72 | GCCCCGGCGT | 1.03
73 | GCCCCGGTCT | 0.977
74 | GCCCCTCGGT | 1.03
75 | GCCCCTTTGA | 1.05

Row | Sequence | switch fluorescence ratio
76 | GCCCGAAGAG | 1.67
77 | GCCCGCACCG | 1.24
78 | GCCCGCCCGA | 1.16
79 | GCCCGTGGCG | 0.977
80 | GCCCGTGGGT | 1
81 | GCCCTATGTC | 1
82 | GCCCTATTCA | 0.991
83 | GCCGAAACGC | 1.06
84 | GCCGAATAGA | 1.02
85 | GCCGACCGGA | 0.98
86 | GCCGAGATGG | 1
87 | GCCGCCCGGG | 1.06
88 | GCCGCGTGTA | 1.05
89 | GCCGCTCAGA | 1.04
90 | GCCGCTTTTT | 1.1
91 | GCCGGAAGG | 1.04
92 | GCCGGACGAC | 1.17
93 | GCCGGCAGAA | 0.99
94 | GCCGGCCCCG | 1.01
95 | GCCGGCCCTT | 0.974
96 | GCCGGCCGTA | 0.967
97 | GCCGGGCGGA | 0.997
98 | GCCGGGTACC | 0.978
99 | GCCGTAAAAC | 3.11
100 | GCCGTAACTT | 1.01
